Where two headings read alike, the source gives them in different places. Results are given in words; binding and its absence hold for the method and conditions named. Binding seen in cells or lysates may run through a third protein. Some entries that bind do so weakly or less than the wild type.
T1: mNG-LtVtc4 (L. tarentolae)
T1 sequence: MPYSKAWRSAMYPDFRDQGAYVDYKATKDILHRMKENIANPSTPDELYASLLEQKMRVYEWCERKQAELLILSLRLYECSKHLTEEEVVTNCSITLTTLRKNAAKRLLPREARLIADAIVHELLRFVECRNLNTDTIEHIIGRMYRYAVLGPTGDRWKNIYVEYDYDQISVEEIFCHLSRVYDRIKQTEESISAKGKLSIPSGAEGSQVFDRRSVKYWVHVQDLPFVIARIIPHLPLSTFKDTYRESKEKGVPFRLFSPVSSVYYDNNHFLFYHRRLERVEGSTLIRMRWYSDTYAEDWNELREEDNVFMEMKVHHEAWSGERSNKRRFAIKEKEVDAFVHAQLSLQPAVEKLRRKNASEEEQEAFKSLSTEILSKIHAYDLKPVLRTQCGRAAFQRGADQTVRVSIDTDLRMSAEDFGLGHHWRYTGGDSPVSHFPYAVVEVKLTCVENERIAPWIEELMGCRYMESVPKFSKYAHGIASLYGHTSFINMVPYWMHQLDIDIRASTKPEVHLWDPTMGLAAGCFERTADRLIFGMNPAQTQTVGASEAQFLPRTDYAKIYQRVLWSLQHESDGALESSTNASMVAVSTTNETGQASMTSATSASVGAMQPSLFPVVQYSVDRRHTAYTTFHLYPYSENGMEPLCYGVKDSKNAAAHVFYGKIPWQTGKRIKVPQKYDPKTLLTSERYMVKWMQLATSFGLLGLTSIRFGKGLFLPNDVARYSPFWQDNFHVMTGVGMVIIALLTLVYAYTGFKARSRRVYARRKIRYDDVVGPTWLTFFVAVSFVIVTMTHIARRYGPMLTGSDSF

The chains behind the UniProt entries cited, without tags or fusion partners.
UniProt A0A640KTS5: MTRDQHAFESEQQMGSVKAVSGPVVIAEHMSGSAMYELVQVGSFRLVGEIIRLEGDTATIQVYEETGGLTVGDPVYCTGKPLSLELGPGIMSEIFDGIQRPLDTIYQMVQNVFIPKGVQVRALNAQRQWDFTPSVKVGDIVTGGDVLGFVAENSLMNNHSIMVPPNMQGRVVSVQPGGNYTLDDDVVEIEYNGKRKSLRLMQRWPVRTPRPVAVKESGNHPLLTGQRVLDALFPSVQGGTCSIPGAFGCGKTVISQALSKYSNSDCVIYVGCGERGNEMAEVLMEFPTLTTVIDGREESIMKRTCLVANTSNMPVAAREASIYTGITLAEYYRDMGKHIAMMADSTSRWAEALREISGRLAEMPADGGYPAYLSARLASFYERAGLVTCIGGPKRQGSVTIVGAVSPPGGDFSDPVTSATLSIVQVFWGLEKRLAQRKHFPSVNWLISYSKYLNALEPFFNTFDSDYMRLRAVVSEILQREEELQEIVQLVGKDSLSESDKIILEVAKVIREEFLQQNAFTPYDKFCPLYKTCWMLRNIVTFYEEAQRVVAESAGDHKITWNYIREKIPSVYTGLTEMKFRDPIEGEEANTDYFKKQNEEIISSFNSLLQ

T2: mCh-LtVBP3 (L. tarentolae)
T2 sequence: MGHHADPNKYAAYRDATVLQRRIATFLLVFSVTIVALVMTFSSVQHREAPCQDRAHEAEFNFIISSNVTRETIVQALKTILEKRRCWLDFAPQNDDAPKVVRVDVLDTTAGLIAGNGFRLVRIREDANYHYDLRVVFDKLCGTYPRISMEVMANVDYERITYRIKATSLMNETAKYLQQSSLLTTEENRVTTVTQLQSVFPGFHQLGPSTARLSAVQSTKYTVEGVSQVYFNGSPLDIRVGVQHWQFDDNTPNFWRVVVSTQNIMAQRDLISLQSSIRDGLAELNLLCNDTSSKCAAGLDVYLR


Columns and labels:
[1] = biological target: T1, mNG-LtVtc4 (L. tarentolae); experiment: pull-down; mNeonGreen-Trap agarose beads capture mNG-LtVtc4 from 1% DDM-solubilised lysate of L. tarentolae that also express the mCh-tagged candidate; overnight, 4 °C; 50 mM HEPES pH 7.5, 150 mM NaCl, 1 mM IP6, 1 mM DTT; washes with 0.05% DDM; SDS-PAGE with in-gel fluorescence
[2] = biological target: T1, mNG-LtVtc4 (L. tarentolae); experiment: as above; remark: listed apart in the source
[3] = biological target: T2, mCh-LtVBP3 (L. tarentolae); experiment: pull-down; RFP-Trap Magnetic Particles M-270 capture mCh-LtVBP3 from 1% DDM-solubilised lysate of L. tarentolae that also express mNG-LtVtc4; overnight, 4 °C; 50 mM HEPES pH 7.5, 150 mM NaCl, 1 mM IP6, 1 mM DTT; washes with 0.05% DDM; SDS-PAGE with in-gel fluorescence

Molecule | binding [2] | also measured
mCh-LtV-H+-ATPase_A (from UniProt A0A640KTS5 1-610) | – | binding [1]: no binding
mCh-LtVtc1 (protein, UniProt A0A640KC32 1-180) MDATNRGLSYLCCVGGSLKPWAEGQDEGDDKYESLQGPGGRNLTGSVNDKRICVPQKIDPKTFFANERTFLKWLSISVMVGLMSLTLLNFGDSTNNGAELAGLVLLPVSIVFMVYSLFIFRDRANKIYMREPMRYDDTRGPTLLVLVLGSALALATLFSLQRQYTQTVVSSFSETARFSQ | binds | –
mCh-LtVBP1 (protein, UniProt A0A640KSV2 1-122) MPCQVGQRNWTFTDSSVCYVTPNLRLRQCVCPLTTCTPTTEGYGCHLTSSAMILSSVLVIVWIMAACAYVYVLNYVGELELEARTEKVVSLSRNYYYHKLFGSDSTIVPSSVYVPDGKLRSE | binds | –
mCh-LtVBP3 (protein, UniProt A0A640KSV0 1-304) MGHHADPNKYAAYRDATVLQRRIATFLLVFSVTIVALVMTFSSVQHREAPCQDRAHEAEFNFIISSNVTRETIVQALKTILEKRRCWLDFAPQNDDAPKVVRVDVLDTTAGLIAGNGFRLVRIREDANYHYDLRVVFDKLCGTYPRISMEVMANVDYERITYRIKATSLMNETAKYLQQSSLLTTEENRVTTVTQLQSVFPGFHQLGPSTARLSAVQSTKYTVEGVSQVYFNGSPLDIRVGVQHWQFDDNTPNFWRVVVSTQNIMAQRDLISLQSSIRDGLAELNLLCNDTSSKCAAGLDVYLR | binds weakly | –
mNG-LtVtc4 (protein, UniProt A0A640K9H1 1-807) MPYSKAWRSAMYPDFRDQGAYVDYKATKDILHRMKENIANPSTPDELYASLLEQKMRVYEWCERKQAELLILSLRLYECSKHLTEEEVVTNCSITLTTLRKNAAKRLLPREARLIADAIVHELLRFVECRNLNTDTIEHIIGRMYRYAVLGPTGDRWKNIYVEYDYDQISVEEIFCHLSRVYDRIKQTEESISAKGKLSIPSGAEGSQVFDRRSVKYWVHVQDLPFVIARIIPHLPLSTFKDTYRESKEKGVPFRLFSPVSSVYYDNNHFLFYHRRLERVEGSTLIRMRWYSDTYAEDWNELREEDNVFMEMKVHHEAWSGERSNKRRFAIKEKEVDAFVHAQLSLQPAVEKLRRKNASEEEQEAFKSLSTEILSKIHAYDLKPVLRTQCGRAAFQRGADQTVRVSIDTDLRMSAEDFGLGHHWRYTGGDSPVSHFPYAVVEVKLTCVENERIAPWIEELMGCRYMESVPKFSKYAHGIASLYGHTSFINMVPYWMHQLDIDIRASTKPEVHLWDPTMGLAAGCFERTADRLIFGMNPAQTQTVGASEAQFLPRTDYAKIYQRVLWSLQHESDGALESSTNASMVAVSTTNETGQASMTSATSASVGAMQPSLFPVVQYSVDRRHTAYTTFHLYPYSENGMEPLCYGVKDSKNAAAHVFYGKIPWQTGKRIKVPQKYDPKTLLTSERYMVKWMQLATSFGLLGLTSIRFGKGLFLPNDVARYSPFWQDNFHVMTGVGMVIIALLTLVYAYTGFKARSRRVYARRKIRYDDVVGPTWLTFFVAVSFVIVTMTHIARRYGPMLTGSDSF | – | binding [3]: binds
mCh-LtPho91 (protein, UniProt A0A640KRT3 1-734) MKFGKRLQDEIVLEWADYYVNYKRLKQFIHNSELRGGDFSNELFNIITEEIAKAEGLFQQLMADLQEEHGRLMKLNPDLPVAPVTKPSKFYRRKKGSSANDEAPNEETGLVSTATSSVCDQSVLDGELMPHHQRKGLGALFKRLFLLLIGDSQVKEVDSNTPRALFLEWHSNAHQLQHFAELNLEAIRKSAKKLKKYRRMEDDCTAAIEAELARSRLVTLMPRLRNLLLDVSVDFERKFKVPLDQYANVAMSQAWHARWRYIFVGAALFLVVKQLPVLKEDPAAHNCLALFVFIITLWITEAIPFFCTAMLIPLLAVPLRIVMDPTTHESATATVASQIILGKLFNHVQILVMGGLTMAKAFSRTNLEMYAASMLHRWTAHRPSLYLLGVMLSSCLLCAFVSNVAAPLLVLGVVQRTLWEFPEGTNAPHGILLGLAFACNIGGMLSPIASPQNAVAISALSFYKVSFAQWVGVALPVVLFCVVAAWAVVLIVWSPFADVPYIPLQVVNTAADEQVSSATRVVVLVVSAITITLWILPANLFFGDTGIVALIPIVVFFGIGILSKEDFNTLSWHLMFLLAGGNMLGLCARDSRLLDIIAMSMKSTLAHSPPYLTLFVVLVAVGVITTFVSHTVAAMILLPIIVKIGFLMPESTGIMTVTPQSMVMLSALMCSGAMAFPISSFPNVNSLLAEDAKGKPYLRAKDFLFCGTVITLVFAACLVTWMVPLSNYVLPSDH | no binding | –
mCh-LtCa2+-ATPase (protein, UniProt A0A640KEU5 1-1135) MSSAGKLSVGERCAPQPAPSSSMSSSKATLESAFAIHPETLHELISDGGQDASKRLARIGGLKGLAAQLKTDLVRGIDSTDMKAMAQRREWFSANELPEAEEASFMDMVWESLEDRMVQILIISALVSLVLGLTVPDQDTGLVDYAHGWIEGTAILLSVAIVTLVSSINNYQKEQKFKELSKATPPVKVQVVRSGTTLDITDKDLLSGDLLNVAAGDVLTVDGLVLRSTSLKVDESAATGENDDVAKSAHGDFVLRSGSNITEGEGTILVMGVGVHSFAGHIAMHVREAKEETPLQQKLEELANRIGYMGMAAAGLMFVLLSGKELLDTVVYHTHPFGYKKYLDNLMTAVTIVVVAVPEGLPLSVTIALAYSMKQMFKENNLVRHLAACETMGGATTICTDKTGTITQNDMSVTDGVTTYGVAYVVPRKLPTLAGEDEKAGSETVASHSPPLQTSTSMNASSVLGGAQAANVRRLLMECIAMNTKATLTRLESLNGKHATVRLTGSKTEQALLNFVNALGEDPMQLRSERLSRLNEEAMRTPSSPFSLVPWPTGLAGTSSNVVAAAATFTKDLRIYPFTSARKRMTTALVLRPEKLLRYYVKGASELILAECTHTYDAQGERVGLCHEVRMRLEEAIMAMARRQLRTLAIAYADYPLSSEDSVTSQGSSDSDEGGTTRSSPFLEDDARLVGLTLVGIVGIRDPVRLEVPEAVAQCRRAGVVVRMITGDNKATAVSIAKEVGIYGKVWSGPAKDEQGLALEGPQFRELAKSARKLNAILPRLQVISRASPMDKHILVSALMKRGEVVAVTGDGTNDAPALKGANVGFSMNSGTEVAKLASDVVILDDNFSTIVTAMKWGRNVNDNICKFLQFQMTVNVAAVVVSFIGALLDRNGDSPLKPVQLLWVNLIMDTLAALALATETPSDEVLLRPPKPKAAPLITRRMWLNIAGQSLYQILIQQYLLLGGTNTLGLAVQDSEELHTLIFNVFVLMQLSNEFNARILDNSVAFWHNLSNAPMFIIVVGTMFVIQIISVQYGGTFMQCVPLPLASWLTSLALGVVPLFLGFVLRRIGVVEKEIPPPLPVVDTEEEAALQLALKQHVRPTLRDTAGKVRMQLRVLKAFRANAQAQRVARTRSM | no binding | –
mCh-LtZnT (protein, UniProt A0A640KNG3 1-443) MPMQTPGETTGLTAASAAPAAANYRAASPTVHVTVAEEKTIDQALTAVEARRESEKRVLLGALIFCFLFMIVEFASGAIAHSLALLTDAIHLLADVGSYALSIGALIAAGRAACGRYSYGWHRAEVIGTLISVFSIWALVTWIVIEAGYRTYDMYMCSLVPAQVSSGAVKVRECQAVDSRLVILVGVLGMVVNVVCASILYFGGSHGHSHFGSSHGHSHGSSEAHDHDHSHGDSHEHDHEHDHGHDHGHDHGYAAQSGGGIGSHKGFAVHAAILHAMGDCVQSIGVILAGCFIYFSNLAYYGKHTYEHSLFNLADPFCSVMFALITLNMTKSLLMDLLSILMESTPASVDYYALELALQKIDGVVSVHDLHVWSLSAEYVSLSVHLVADNSAEALHKAQHICKEHFGIGHTTIQIDPVAVGTAGCASACASPTAHDEISSHYM | no binding | –

From article PMC13375126
